Experimental data published in the supplement of paper PMC8728848.
The other results are listed elsewhere or left out.

Experiments:
Assay in all cases: glycan array binding signal (z-score within array); higher = stronger binding
Details in all cases: glycan notation: IUPAC condensed, linker removed
[1] = target: Fuc(a1-3)[Gal3S(b1-4)]GlcNAc
Method in brief: (§1)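 From the Consortium for Functional Glycomics database, 3228 arrays were curated, keeping only those whose protein sequence was available. Binding is given as a within-array Z-score averaged across arrays sharing a protein sequence and across linkers. Negative Z-scores can be read as non-binding.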

[2] = target: Fuc(a1-3)[Gal3S(b1-4)]GlcNAc6S
Method in brief: as §1

[3] = target: Fuc(a1-3)[GalNAc(b1-4)]GlcNAc
Method in brief: as §1

Fuc(a1-4)GlcNAc = target: Fuc(a1-4)GlcNAc
Method in brief: as §1

Fuc(b1-3)GlcNAc = target: Fuc(b1-3)GlcNAc
Method in brief: as §1

Gal(a1-2)Gal = target: Gal(a1-2)Gal
Method in brief: as §1

Gal(a1-3)Gal = target: Gal(a1-3)Gal
Method in brief: as §1

Gal(a1-3)Gal(b1-3)GlcNAc = target: Gal(a1-3)Gal(b1-3)GlcNAc
Method in brief: as §1

[4] = target: Gal(a1-3)Gal(b1-3)GlcNAc(b1-2)Man(a1-3)[Gal(a1-3)Gal(b1-3)GlcNAc(b1-2)Man(a1-6)]Man(b1-4)GlcNAc(b1-4)GlcNAc
Method in brief: as §1

[5] = target: Gal(a1-3)Gal(b1-3)[Fuc(a1-4)]GlcNAc(b1-2)Man(a1-3)[Gal(a1-3)Gal(b1-3)[Fuc(a1-4)]GlcNAc(b1-2)Man(a1-6)]Man(b1-4)GlcNAc(b1-4)GlcNAc
Method in brief: as §1

Gal(a1-3)Gal(b1-4)Glc = target: Gal(a1-3)Gal(b1-4)Glc
Method in brief: as §1

Gal(a1-3)Gal(b1-4)GlcNAc = target: Gal(a1-3)Gal(b1-4)GlcNAc
Method in brief: as §1

[6] = target: Gal(a1-3)Gal(b1-4)GlcNAc(b1-3)GalNAc
Method in brief: as §1

[7] = target: Gal(a1-3)Gal(b1-4)[Fuc(a1-3)]GlcNAc
Method in brief: as §1

[8] = target: Gal(a1-3)Gal(b1-4)[Fuc(a1-3)]GlcNAc(b1-2)Man(a1-3)[Gal(a1-3)Gal(b1-4)[Fuc(a1-3)]GlcNAc(b1-2)Man(a1-6)]Man(b1-4)GlcNAc(b1-4)GlcNAc
Method in brief: as §1

Gal(a1-3)GalNAc = target: Gal(a1-3)GalNAc
Method in brief: as §1

[9] = target: Gal(a1-3)[Gal(a1-4)]Gal(b1-4)GlcNAc
Method in brief: as §1

[10] = target: Gal(a1-4)Gal(b1-3)GlcNAc(b1-2)Man(a1-3)[Gal(a1-4)Gal(b1-3)GlcNAc(b1-2)Man(a1-6)]Man(b1-4)GlcNAc(b1-4)GlcNAc
Method in brief: as §1

Gal(a1-4)Gal(b1-4)Glc = target: Gal(a1-4)Gal(b1-4)Glc
Method in brief: as §1

Gal(a1-4)Gal(b1-4)GlcNAc = target: Gal(a1-4)Gal(b1-4)GlcNAc
Method in brief: as §1

[11] = target: Gal(a1-4)Gal(b1-4)GlcNAc(b1-2)Man(a1-3)[Gal(a1-4)Gal(b1-4)GlcNAc(b1-2)Man(a1-6)]Man(b1-4)GlcNAc(b1-4)GlcNAc
Method in brief: as §1

[12] = target: Gal(a1-4)Gal(b1-4)GlcNAc(b1-3)Gal(b1-4)Glc
Method in brief: as §1

Gal(a1-4)GlcNAc = target: Gal(a1-4)GlcNAc
Method in brief: as §1

Gal(a1-6)Glc = target: Gal(a1-6)Glc
Method in brief: as §1

Gal(b1-2)Gal = target: Gal(b1-2)Gal
Method in brief: as §1

Gal(b1-3)Gal = target: Gal(b1-3)Gal
Method in brief: as §1

Gal(b1-3)Gal(b1-4)GlcNAc = target: Gal(b1-3)Gal(b1-4)GlcNAc
Method in brief: as §1

[13] = target: Gal(b1-3)Gal(b1-4)GlcNAc(b1-2)Man(a1-3)[Gal(b1-3)Gal(b1-4)GlcNAc(b1-2)Man(a1-6)]Man(b1-4)GlcNAc(b1-4)GlcNAc
Method in brief: as §1

Gal(b1-3)GalNAc = target: Gal(b1-3)GalNAc
Method in brief: as §1

[14] = target: Gal(b1-3)GalNAc(a1-3)[Fuc(a1-2)]Gal(b1-4)Glc
Method in brief: as §1

[15] = target: Gal(b1-3)GalNAc(a1-3)[Fuc(a1-2)]Gal(b1-4)GlcNAc
Method in brief: as §1

[16] = target: Gal(b1-3)GalNAc(b1-3)Gal(a1-4)Gal(b1-4)Glc
Method in brief: as §1

[17] = target: Gal(b1-3)GalNAc(b1-4)Gal(b1-4)Glc
Method in brief: as §1

[18] = target: Gal(b1-3)GalNAc(b1-4)[Neu5Ac(a2-3)]Gal(b1-4)Glc
Method in brief: as §1

Gal(b1-3)GlcNAc = target: Gal(b1-3)GlcNAc
Method in brief: as §1

[19] = target: Gal(b1-3)GlcNAc(a1-6)Gal(b1-4)GlcNAc
Method in brief: as §1

[20] = target: Gal(b1-3)GlcNAc(b1-2)Man(a1-3)[Gal(b1-3)GlcNAc(b1-2)Man(a1-6)]Man(b1-4)GlcNAc(b1-4)GlcNAc
Method in brief: as §1

[21] = target: Gal(b1-3)GlcNAc(b1-2)Man(a1-3)[Gal(b1-3)GlcNAc(b1-2)Man(a1-6)]Man(b1-4)GlcNAc(b1-4)[Fuc(a1-6)]GlcNAc
Method in brief: as §1

[22] = target: Gal(b1-3)GlcNAc(b1-3)Gal(b1-3)GlcNAc
Method in brief: as §1

[23] = target: Gal(b1-3)GlcNAc(b1-3)Gal(b1-4)Glc
Method in brief: as §1

[24] = target: Gal(b1-3)GlcNAc(b1-3)Gal(b1-4)GlcNAc
Method in brief: as §1

[25] = target: Gal(b1-3)GlcNAc(b1-3)Gal(b1-4)GlcNAc(b1-6)[Gal(b1-3)GlcNAc(b1-3)]Gal(b1-4)Glc
Method in brief: as §1

[26] = target: Gal(b1-3)GlcNAc(b1-3)Gal(b1-4)[Fuc(a1-3)]GlcNAc(b1-6)[Gal(b1-3)GlcNAc(b1-3)]Gal(b1-4)Glc
Method in brief: as §1

[27] = target: Gal(b1-3)GlcNAc(b1-3)GalNAc
Method in brief: as §1

[28] = target: Gal(b1-3)GlcNAc(b1-6)Gal(b1-4)GlcNAc
Method in brief: as §1

[29] = target: Gal(b1-3)[Fuc(a1-4)]GlcNAc
Method in brief: as §1

[30] = target: Gal(b1-3)[Fuc(a1-4)]GlcNAc(b1-2)Man(a1-3)[Gal(b1-3)[Fuc(a1-4)]GlcNAc(b1-2)Man(a1-6)]Man(b1-4)GlcNAc(b1-4)GlcNAc
Method in brief: as §1

[31] = target: Gal(b1-3)[Fuc(a1-4)]GlcNAc(b1-2)Man(a1-3)[Gal(b1-3)[Fuc(a1-4)]GlcNAc(b1-2)Man(a1-6)]Man(b1-4)GlcNAc(b1-4)[Fuc(a1-6)]GlcNAc
Method in brief: as §1

[32] = target: Gal(b1-3)[Fuc(a1-4)]GlcNAc(b1-3)Gal(b1-3)[Fuc(a1-4)]GlcNAc
Method in brief: as §1

[33] = target: Gal(b1-3)[Fuc(a1-4)]GlcNAc(b1-3)Gal(b1-4)GlcNAc
Method in brief: as §1

[34] = target: Gal(b1-3)[Fuc(a1-4)]GlcNAc(b1-3)Gal(b1-4)[Fuc(a1-3)]GlcNAc
Method in brief: as §1

[35] = target: Gal(b1-3)[GlcNAc(b1-6)]GalNAc
Method in brief: as §1

[36] = target: Gal(b1-3)[Neu5Ac(a2-6)]GalNAc
Method in brief: as §1

[37] = target: Gal(b1-3)[Neu5Ac(a2-6)]GlcNAc(b1-6)Gal(b1-4)Glc
Method in brief: as §1

[38] = target: Gal(b1-3)[Neu5Ac(b2-6)]GalNAc
Method in brief: as §1

[39] = target: Gal(b1-4)GalNAc(a1-3)[Fuc(a1-2)]Gal(b1-4)GlcNAc
Method in brief: as §1

[40] = target: Gal(b1-4)GalNAc(b1-3)[Fuc(a1-2)]Gal(b1-4)GlcNAc
Method in brief: as §1

Gal(b1-4)Glc = target: Gal(b1-4)Glc
Method in brief: as §1

Gal(b1-4)Glc6S = target: Gal(b1-4)Glc6S
Method in brief: as §1

Gal(b1-4)GlcNAc = target: Gal(b1-4)GlcNAc
Method in brief: as §1

B1: Gal 3 (Homo sapiens), P17931 (protein)
chain: MADNFSLHDALSGSGNPNPQGWPGAWGNQPAGAGGYPGASYPGAYPGQAPPGAYPGQAPPGAYHGAPGAYPGAPAPGVYPGPPSGPGAYPSSGQPSAPGAYPATGPYGAPAGPLIVPYNLPLPGGVVPRMLITILGTVKPNANILDFQRGNDVAFHFNPRFNENNRRVIVCNTKLDNNWGREERQSVFPFESGKPFKIQVLVEPDHFKVAVNDAHLLQYNHRVKKLNEISKLGISGDIDLTSASYTMI
glycan array binding signal (z-score) [1]: -0.387 | glycan array binding signal (z-score) [2]: -0.384 | glycan array binding signal (z-score) [3]: -0.392 | glycan array binding signal (z-score) (Fuc(a1-4)GlcNAc): -0.389 | glycan array binding signal (z-score) (Fuc(b1-3)GlcNAc): -0.382 | glycan array binding signal (z-score) (Gal(a1-2)Gal): -0.39 | glycan array binding signal (z-score) (Gal(a1-3)Gal): -0.391 | glycan array binding signal (z-score) (Gal(a1-3)Gal(b1-3)GlcNAc): 0.324 | glycan array binding signal (z-score) [4]: -0.383 | glycan array binding signal (z-score) [5]: -0.39 | glycan array binding signal (z-score) (Gal(a1-3)Gal(b1-4)Glc): -0.347 | glycan array binding signal (z-score) (Gal(a1-3)Gal(b1-4)GlcNAc): -0.086 | glycan array binding signal (z-score) [6]: 0.949 | glycan array binding signal (z-score) [7]: -0.393 | glycan array binding signal (z-score) [8]: -0.384 | glycan array binding signal (z-score) (Gal(a1-3)GalNAc): -0.387 | glycan array binding signal (z-score) [9]: -0.388 | glycan array binding signal (z-score) [10]: -0.389 | glycan array binding signal (z-score) (Gal(a1-4)Gal(b1-4)Glc): -0.394 | glycan array binding signal (z-score) (Gal(a1-4)Gal(b1-4)GlcNAc): -0.386 | glycan array binding signal (z-score) [11]: -0.388 | glycan array binding signal (z-score) [12]: 0.248 | glycan array binding signal (z-score) (Gal(a1-4)GlcNAc): -0.369 | glycan array binding signal (z-score) (Gal(a1-6)Glc): -0.388 | glycan array binding signal (z-score) (Gal(b1-2)Gal): -0.388 | glycan array binding signal (z-score) (Gal(b1-3)Gal): -0.392 | glycan array binding signal (z-score) (Gal(b1-3)Gal(b1-4)GlcNAc): -0.372 | glycan array binding signal (z-score) [13]: 4.28 | glycan array binding signal (z-score) (Gal(b1-3)GalNAc): -0.387 | glycan array binding signal (z-score) [14]: 1.11 | glycan array binding signal (z-score) [15]: 2.57 | glycan array binding signal (z-score) [16]: -0.389 | glycan array binding signal (z-score) [17]: -0.389 | glycan array binding signal (z-score) [18]: -0.391 | glycan array binding signal (z-score) (Gal(b1-3)GlcNAc): -0.384 | glycan array binding signal (z-score) [19]: -0.392 | glycan array binding signal (z-score) [20]: -0.083 | glycan array binding signal (z-score) [21]: -0.333 | glycan array binding signal (z-score) [22]: 0.585 | glycan array binding signal (z-score) [23]: 0.286 | glycan array binding signal (z-score) [24]: 1.33 | glycan array binding signal (z-score) [25]: 1.46 | glycan array binding signal (z-score) [26]: 0.259 | glycan array binding signal (z-score) [27]: -0.39 | glycan array binding signal (z-score) [28]: -0.387 | glycan array binding signal (z-score) [29]: -0.391 | glycan array binding signal (z-score) [30]: -0.384 | glycan array binding signal (z-score) [31]: -0.386 | glycan array binding signal (z-score) [32]: -0.387 | glycan array binding signal (z-score) [33]: -0.386 | glycan array binding signal (z-score) [34]: -0.388 | glycan array binding signal (z-score) [35]: -0.389 | glycan array binding signal (z-score) [36]: -0.375 | glycan array binding signal (z-score) [37]: -0.389 | glycan array binding signal (z-score) [38]: -0.386 | glycan array binding signal (z-score) [39]: 2.98 | glycan array binding signal (z-score) [40]: -0.389 | glycan array binding signal (z-score) (Gal(b1-4)Glc): -0.393 | glycan array binding signal (z-score) (Gal(b1-4)Glc6S): -0.39 | glycan array binding signal (z-score) (Gal(b1-4)GlcNAc): -0.392
